From PubChem BioAssay AID463173 (ICCB-Longwood Screening Facility, Harvard Medical School, 2010)
Among all 52,000 compounds or so, about 1,700 (3.3%) were called active. No stated cut-off is given here; in the data, active means survival mostly below about 52% (no sharp cut-off); inactive means mostly above about 56%. Some of the results follow.

Each compound was assayed on Wild type (assay: S. aureus survival, RN4220 and DeltatarO strains – OD600, teichoic acid synthesis inhibitors, primary screen (AID 463173)). Conditions: S. aureus RN4220 wild type/DeltatarO growth, OD600, 18 h, active compounds read low, screened at 18.75 µg/mL (by protocol).

| Compound | survival |
| --- | --- |
| Cc1ccc2onc(CNC(=O)N3CCN(c4cccc(C(F)(F)F)c4)CC3)c2c1 | inactive: 96% |
| Cc1ccc(CNC(=O)CN2C(=O)CCc3cc(S(=O)(=O)N4CCCCC4)ccc32)cc1 | inactive: 91% |
| COC(=O)c1ccc2nc(C)cc(Nc3cccc(Cl)c3C)c2c1 | inactive: 123% |
| COCC(=O)Nc1c(C(=O)Nc2ccc(C)cc2)oc2ccccc12 | inactive: 86% |
| Cc1ccc(NC(c2nnc(-c3ccccc3)o2)c2ccccc2F)c(Cl)c1 (centres undefined) | inactive: 91% |
| Cc1ccc2oc(-c3ccc(C)c(NC(=O)c4ccc(-c5ccccc5[N+](=O)[O-])o4)c3)nc2c1 | inactive: 71% |
| Cc1nc2ccccc2c(=O)n1CC(C)C | inactive: 106% |
| CCOc1ccc(S(=O)(=O)N(CC(=O)Nc2ccc3c(c2)OCO3)c2ccc(C)cc2)cc1 | inactive: 61% |
| COc1cc(CN(C(=O)c2ccc(Cl)cc2)C2CCS(=O)(=O)C2)cc(OC)c1OC (centres undefined) | inactive: 96% |
| Cc1ccc(CCNC(=O)CCn2nc(-c3ccc(C)cc3)ccc2=O)cc1 | inactive: 128% |
| COC(=O)c1ccc2c(=O)n(CCCCCC(=O)N3CCN(c4ccc(Cl)cc4)CC3)c(=O)[nH]c2c1 | inactive: 136% |
| COc1cccc(C(=O)n2nc(-c3cccnc3)nc2NCc2ccc(F)cc2)c1 | inactive: 75% |
| CCN(CC)CCSc1nnc2c3cc(F)ccc3n(CC)c2n1 | inactive: 144% |
| CCCSc1nnc2c(n1)OC(c1cccs1)Nc1ccc(Br)cc1-2 (centres undefined) | inactive: 57% |
| COC(=O)c1ccc(NC(=O)CN(Cc2ccccc2)S(=O)(=O)c2ccc(Cl)cc2)cc1 | inactive: 56% |
| COc1ccccc1CNC(=O)Cn1c(=O)nc(-c2ccccc2)c2ccccc21 | inactive: 67% |
| O=C(NCCc1ccccc1)c1ccc(CS(=O)(=O)c2ccc(Cl)cc2)o1 | inactive: 78% |
| Oc1c(C(c2ccccc2F)N2CCCC2)sc2nc(-c3ccco3)nn12 (centres undefined) | inactive: 88% |
| Cc1c(Cl)cccc1NC(=O)Nc1ccc2snnc2c1 | active: 24% |
| CCn1nc(C)c(NC(=O)CCSc2nc(-c3ccco3)cc(C(F)(F)F)n2)c1C | inactive: 105% |
| CCc1ccc(N(CC)C(=O)Cn2cnc3sc(C)c(S(=O)(=O)N4CCN(c5ncccn5)CC4)c3c2=O)cc1 | inactive: 83% |
| CCCOc1ccccc1C1C(C(=O)Nc2ccccc2)=C(C)Nc2nnnn21 (centres undefined) | inactive: 134% |
| CCCC1=Nc2cc(C(=O)NCCOC)ccc2Sc2ccccc21 | inactive: 123% |

| Compound | survival |
| --- | --- |
| CCC(=O)N1c2ccc(S(=O)(=O)CCC(=O)NCc3cccc(OC)c3)cc2CC1C (centres undefined) | inactive: 82% |
| CC(=O)Nc1ccc(NC(=O)c2cc(-c3ccc4c(c3)OCCO4)on2)cc1 | inactive: 109% |
| Cc1cccc(S(=O)(=O)c2cn(C)c3cc(N4CCC(C)CC4)c(F)cc3c2=O)c1 | inactive: 81% |
| Cc1[nH]c(=O)[nH]c(=O)c1CSCC(=O)O | inactive: 108% |
| COc1ccc(-c2noc(CSc3nnc(C)n3-c3ccc(C)c(C)c3)n2)c(OC)c1 | inactive: 81% |
| COc1ccc(-c2nc(SCC(=O)NCCc3ccccc3)n[nH]2)cc1 | inactive: 78% |
| O=C(NCc1ccccc1Cl)c1nnc(Cc2ccc(Cl)cc2)o1 | inactive: 85% |
| Cc1cccc(CSc2ccc(-c3cccs3)nn2)c1 | inactive: 76% |
| CN(C)c1ccc(-c2nc3ccccn3c2NC2CCCC2)cc1 | inactive: 105% |
| CCOc1ccc(NC(=O)C(C)n2c(=O)cc(C)c3c(C)nn(-c4ccccc4)c32)cc1 (centres undefined) | inactive: 68% |
| CCc1ccc(OCC(=O)Nc2ccc3c(c2)c2ccccc2n3CC)c(Br)c1 | active: -6% |
| N#C/C(=C\c1cc(Br)c(O)c(Br)c1)c1nc2ccccc2c(=O)[nH]1 | inactive: 94% |
| Cc1ccc2onc(CC(=O)N3CCN(c4ccccc4)CC3)c2c1 | inactive: 81% |
| CCc1ccc(NC(=O)CSc2ncc(S(=O)(=O)c3cc(C)ccc3C)c(=O)[nH]2)cc1 | inactive: 83% |
| CC1CCN(c2nc3ccc(C(=O)NCCc4ccc(S(N)(=O)=O)cc4)cc3s2)CC1 | inactive: 80% |
| O=C(Cn1c(=O)oc2cc(S(=O)(=O)N3CCCCC3)ccc21)NCc1ccc(F)cc1 | inactive: 133% |
| COc1ccc(CC(=O)NC2CC(=O)N(c3ccc(C)c(C)c3)C2)cc1OC (centres undefined) | inactive: 45% |
| Cc1ccc(CNC(=O)CN2C(=O)C3(SCC(=O)N3c3ccc(F)c(F)c3)c3ccccc32)cc1 (centres undefined) | inactive: 70% |
| COc1ccc(-c2nc(Cn3c(SCc4ccccc4F)nc4cccnc43)c(C)o2)cc1 | inactive: 68% |
| Cc1cccc2sc(N(Cc3cccnc3)C(=O)C3COc4ccccc4O3)nc12 (centres undefined) | inactive: 76% |
| COc1ccc(OC)c(NC(=O)C2C3C=CC(C3)C2C(=O)NCc2cccnc2)c1 (centres undefined) | inactive: 117% |
| CC1=C(C#N)c2nc(N)c(C#N)c(C)c2/C1=C\c1cccnc1 | inactive: 83% |
| O=C(CN1C(=O)CCc2cc(S(=O)(=O)N3CCCCC3)ccc21)NCc1ccc(Cl)cc1 | inactive: 73% |

| Compound | survival |
| --- | --- |
| COC(=O)c1c(NC(=O)c2ccc(S(=O)(=O)N(C)C3CCCCC3)cc2)sc2c1CCN(C)C2 | inactive: 73% |
| CCOC(=O)C(Cc1ccccc1)NC(=O)CCc1c(C)nc2c(c(C)nn2-c2ccc(C)c(C)c2)c1C (centres undefined) | inactive: 94% |
| COC(=O)c1ccccc1NC(=O)C1CCCN(c2nnc(C)c3c(C)n(-c4ccccc4)nc23)C1 (centres undefined) | inactive: 85% |
| COc1ccc(OCC(=O)NCC(c2ccc(OC)cc2)N2CCOCC2)cc1 (centres undefined) | inactive: 108% |
| Cc1ccc(C)c(N2CCN(C(=O)CS(=O)(=O)c3cccc4nsnc34)CC2)c1 | inactive: 120% |
| Cc1cccc(N2CCN(C(=O)CN3C(=O)COc4ccc(S(=O)(=O)N5CCCC5)cc43)CC2C)c1 (centres undefined) | inactive: 95% |
| Cc1cc(NC(=O)C(C)(C)C)cc(-c2nc3ncccc3o2)c1O | inactive: 79% |
| Cc1cc(NC(=O)c2cnc3c(-c4ccccc4)c(C)nn3c2C)ccc1Br | inactive: 73% |
| O=C(Cn1c(-c2cccs2)cc2cc(F)ccc21)NCCCN1CCN(c2ccc(F)cc2)CC1 | inactive: 68% |
| Cc1ccc(/C=C/c2onc(C)c2S(=O)(=O)N2CCC(C(=O)NCc3ccc(OC(C)C)cc3)CC2)cc1 | inactive: 97% |
| CN(C)c1ccc2c(c1)S(=O)(=O)c1cc(N(C)C)ccc1C2=O | inactive: 110% |
| CC1Cc2ccccc2N1C(=O)c1cc2sccc2n1Cc1ccc(F)cc1 (centres undefined) | inactive: 119% |
| CCn1c(SCC(=O)c2ccccc2)nnc1-c1cccc(Cl)c1 | inactive: 33% |
| CCc1c(CN2CCN(c3ccccc3F)CC2)csc1C | inactive: 52% |
| Cc1ccc(S(=O)(=O)NCCSc2nnc3nc(C)cc(C)n23)cc1 | inactive: 99% |
| Cc1ccc(CNC(=O)c2ccccc2NC(=O)c2nsc3ccccc23)cc1 | inactive: 75% |
| COc1ccc(-c2c(C)c3ccc(O)c(CN4CCCC4)c3oc2=O)cc1 | inactive: 81% |
| COc1cccc(CNCCSc2nnnn2-c2ccccc2)c1OC | inactive: 85% |
| COCCCNC(=O)NC(CCC(C)C)c1c(-n2cccc2)sc2c1CCN(C)C2 (centres undefined) | inactive: 75% |
| Cc1c(Cl)cccc1NC(=O)CCCn1nc(C)c2sc3ccccc3c2c1=O | inactive: 82% |
| Cc1nnc(C)n1-c1ccc(C(=O)Nc2cccc(Br)c2)cc1 | inactive: 99% |
| Cc1cccc(Cn2cc3c(=O)n(CC(=O)Nc4c(C)cccc4C)nc-3c3cc(F)ccc32)c1 | inactive: 71% |
| CCC1CCCCN1S(=O)(=O)c1ccc(NC(=O)c2cc(=O)c3c(C)cc(C)cc3o2)cc1 (centres undefined) | inactive: 78% |

| Compound | survival |
| --- | --- |
| COc1cccc(N2CCN(c3c4c(nc5nncn35)CCC4)CC2)c1 | inactive: 81% |
| COC(=O)c1cc2oc3ccccc3c2n1Cc1nc(-c2ccccc2Cl)oc1C | inactive: 87% |
| CC(C)Sc1nc2sc3c(c2c(=O)n1Cc1ccccc1)CCCC3 | active: 5% |
| CCOc1ccccc1N1CCN(C(=O)C2CCN(Cc3ccc(OC)cc3)CC2)CC1 | inactive: 106% |
| CC(C)NC(=O)CSc1nnc(Cc2ccccc2)n1C | inactive: 101% |
| CC1(C)CC(=O)c2cc(-c3nc(-c4ccccc4)cs3)c(=O)[nH]c2C1 | inactive: 67% |
| Cc1ccc(NC(=O)C2CCN(S(=O)(=O)c3c(C)noc3C)CC2)cc1 | inactive: 95% |
| O=C(NCCN1CCN(c2ccccc2)CC1)Nc1cccc(Br)c1 | inactive: 74% |
| O=C(OCc1ccccc1)N1CCOCCN(C(=O)OCc2ccccc2)CCOCC1 | inactive: 102% |
| CCOc1ccc(NC(=O)CSc2nc3ccsc3c(=O)n2C(C)CC)cc1 (centres undefined) | inactive: 78% |
| COc1ccc(Nc2nc(-c3cccc(Cl)c3)c3c(n2)-c2ccccc2OC3)cc1 | inactive: 86% |
| CCOc1ccccc1CNC(=O)Cc1ccc(NC(=O)N2CCCCc3ccccc32)cc1 | inactive: 128% |
| Cc1ccc(C#N)c(SCC(=O)O)n1 | inactive: 113% |
| CCOc1ccc(CCNC(=O)CCc2c(C)nc3c(c(C)nn3-c3ccc(C)c(C)c3)c2C)cc1 | inactive: 77% |
| CCCCNS(=O)(=O)c1ccc2nc(-c3cccnc3)cc(C(=O)NCCCOC(C)C)c2c1 | inactive: 63% |
| Cc1ccc2nc(NCc3ccccc3)c3nnnn3c2c1 | inactive: 159% |
| Cc1cccc2c1-c1sc(C(=O)N3CCN(c4ccccc4)CC3)cc1CO2 | inactive: 65% |
| COc1ccc(-c2noc(N3CCC(C(=O)N4CCN(c5ccccc5OC)CC4)CC3)n2)cc1 | inactive: 55% |
| CCOC(=O)c1cnc2c(C)c(Cl)ccc2c1NCCc1ccc(OC)c(OC)c1 | active: 4% |
| CCOc1cccc(Nc2nn(-c3ccc(OC(F)(F)F)cc3)nc2C(C)=O)c1 | inactive: 94% |
